# Results: the supplement of paper PMC8728848
# Some of the results follow.
# Experiments:
# Experiment in all cases: glycan array binding signal (z-score within array); higher = stronger binding
# Details in all cases: glycan notation: IUPAC condensed, linker removed
# [1] = target: Fuc(a1-2)[GalNAc(a1-4)]Gal(b1-4)GlcNAc
# Method in brief: (§1)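 The binding signal is a Z-score computed within each array and averaged over linkers. Arrays of the same protein sequence at different concentrations or buffers were also averaged together. Data originate from 3228 arrays in the Consortium for Functional Glycomics database, kept only where the protein sequence was available.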
# [2] = target: Fuc(a1-2)[GalNAc(b1-3)]Gal
# Method in brief: as §1
# [3] = target: Fuc(a1-3)GlcNAc
# Method in brief: as §1
# [4] = target: Fuc(a1-3)[Gal(b1-4)]Glc6S
# Method in brief: as §1
# [5] = target: Fuc(a1-3)[Gal(b1-4)]GlcNAc
# Method in brief: as §1
# [6] = target: Fuc(a1-3)[Gal(b1-4)]GlcNAc(b1-2)Man
# Method in brief: as §1
# [7] = target: Fuc(a1-3)[Gal(b1-4)]GlcNAc(b1-2)Man(a1-3)[Fuc(a1-3)[Gal(b1-4)]GlcNAc(b1-2)Man(a1-6)]Man(b1-4)GlcNAc(b1-4)GlcNAc
# Method in brief: as §1
# [8] = target: Fuc(a1-3)[Gal(b1-4)]GlcNAc(b1-2)Man(a1-3)[Fuc(a1-3)[Gal(b1-4)]GlcNAc(b1-2)Man(a1-6)]Man(b1-4)GlcNAc(b1-4)[Fuc(a1-6)]GlcNAc
# Method in brief: as §1
# [9] = target: Fuc(a1-3)[Gal(b1-4)]GlcNAc(b1-3)Gal(b1-3)[Fuc(a1-4)]GlcNAc
# Method in brief: as §1
# [10] = target: Fuc(a1-3)[Gal(b1-4)]GlcNAc(b1-3)Gal(b1-4)[Fuc(a1-3)]GlcNAc
# Method in brief: as §1
# [11] = target: Fuc(a1-3)[Gal(b1-4)]GlcNAc(b1-3)Gal(b1-4)[Fuc(a1-3)]GlcNAc(b1-3)Gal(b1-4)[Fuc(a1-3)]GlcNAc
# Method in brief: as §1
# [12] = target: Fuc(a1-3)[Gal(b1-4)]GlcNAc(b1-3)GalNAc
# Method in brief: as §1
# [13] = target: Fuc(a1-3)[Gal(b1-4)]GlcNAc(b1-4)Gal(b1-4)[Fuc(a1-3)]GlcNAc
# Method in brief: as §1
# [14] = target: Fuc(a1-3)[Gal(b1-4)]GlcNAc(b1-4)Gal(b1-4)[Fuc(a1-3)]GlcNAc(b1-4)Gal(b1-4)[Fuc(a1-3)]GlcNAc
# Method in brief: as §1
# [15] = target: Fuc(a1-3)[Gal(b1-4)]GlcNAc(b1-6)GalNAc
# Method in brief: as §1
# [16] = target: Fuc(a1-3)[Gal(b1-4)]GlcNAc(b1-6)[Gal(b1-3)GlcNAc(b1-3)]Gal(b1-4)Glc
# Method in brief: as §1
# [17] = target: Fuc(a1-3)[Gal(b1-4)]GlcNAc6S
# Method in brief: as §1
# [18] = target: Fuc(a1-3)[Gal3S(b1-4)]Glc
# Method in brief: as §1
# [19] = target: Fuc(a1-3)[Gal3S(b1-4)]GlcNAc
# Method in brief: as §1
# [20] = target: Fuc(a1-3)[Gal3S(b1-4)]GlcNAc6S
# Method in brief: as §1
# [21] = target: Fuc(a1-3)[GalNAc(b1-4)]GlcNAc
# Method in brief: as §1
# [22] = target: Fuc(a1-3)[GalNAc(b1-4)]GlcNAc6S
# Method in brief: as §1
# [23] = target: Fuc(a1-4)GlcNAc
# Method in brief: as §1
# [24] = target: Fuc(b1-3)GlcNAc
# Method in brief: as §1
# [25] = target: Gal(a1-2)Gal
# Method in brief: as §1
# [26] = target: Gal(a1-3)Gal
# Method in brief: as §1
# [27] = target: Gal(a1-3)Gal(b1-3)GlcNAc
# Method in brief: as §1
# [28] = target: Gal(a1-3)Gal(b1-3)GlcNAc(b1-2)Man
# Method in brief: as §1
# [29] = target: Gal(a1-3)Gal(b1-3)GlcNAc(b1-2)Man(a1-3)[Gal(a1-3)Gal(b1-3)GlcNAc(b1-2)Man(a1-6)]Man(b1-4)GlcNAc(b1-4)GlcNAc
# Method in brief: as §1
# [30] = target: Gal(a1-3)Gal(b1-3)GlcNAc(b1-3)GalNAc
# Method in brief: as §1
# [31] = target: Gal(a1-3)Gal(b1-3)GlcNAc(b1-6)GalNAc
# Method in brief: as §1
# [32] = target: Gal(a1-3)Gal(b1-3)[Fuc(a1-4)]GlcNAc(b1-2)Man(a1-3)[Gal(a1-3)Gal(b1-3)[Fuc(a1-4)]GlcNAc(b1-2)Man(a1-6)]Man(b1-4)GlcNAc(b1-4)GlcNAc
# Method in brief: as §1
# [33] = target: Gal(a1-3)Gal(b1-4)Glc
# Method in brief: as §1
# [34] = target: Gal(a1-3)Gal(b1-4)GlcNAc
# Method in brief: as §1
# [35] = target: Gal(a1-3)Gal(b1-4)GlcNAc(b1-2)Man
# Method in brief: as §1
# [36] = target: Gal(a1-3)Gal(b1-4)GlcNAc(b1-2)Man(a1-3)[Gal(a1-3)Gal(b1-4)GlcNAc(b1-2)Man(a1-6)]Man(b1-4)GlcNAc(b1-4)GlcNAc
# Method in brief: as §1
# [37] = target: Gal(a1-3)Gal(b1-4)GlcNAc(b1-3)GalNAc
# Method in brief: as §1
binder,measurement,setting,value
GSL-I (Griffonia simplicifolia) (protein) FNLPNFWSDVKDNIIFQGDANTTAGTLQLCKTNQYGNPLQYRAGRALYSDPVQLWDNKTGSVASFYTEFTFFLKITGDGPADGLAFFLAPPDSDVKDAGAYLGLFNKSTATQPSKNQVVAVEFDTWKNTDFPEPSYRHIGINVNSIVSVATKRWEDSDIFSGKIATARISYDGSAKILTVVLSYPDGADYILSHSVDLSKNLPNPIRVGISASTGANQFLTVYVLSWRFSSALQSTSVNAAMGPEIIRTVV,glycan array binding signal (z-score),[1],7.04
same,glycan array binding signal (z-score),[2],-0.188
same,glycan array binding signal (z-score),[3],-0.259
same,glycan array binding signal (z-score),[4],-0.16
same,glycan array binding signal (z-score),[5],-0.211
same,glycan array binding signal (z-score),[6],-0.31
same,glycan array binding signal (z-score),[7],-0.232
same,glycan array binding signal (z-score),[8],-0.063
same,glycan array binding signal (z-score),[9],-0.124
same,glycan array binding signal (z-score),[10],-0.17
same,glycan array binding signal (z-score),[11],-0.188
same,glycan array binding signal (z-score),[12],-0.19
same,glycan array binding signal (z-score),[13],-0.311
same,glycan array binding signal (z-score),[14],-0.302
same,glycan array binding signal (z-score),[15],-0.081
same,glycan array binding signal (z-score),[16],-0.173
same,glycan array binding signal (z-score),[17],0.034
same,glycan array binding signal (z-score),[18],-0.14
same,glycan array binding signal (z-score),[19],-0.114
same,glycan array binding signal (z-score),[20],-0.13
same,glycan array binding signal (z-score),[21],0.055
same,glycan array binding signal (z-score),[22],0.107
same,glycan array binding signal (z-score),[23],-0.215
same,glycan array binding signal (z-score),[24],-0.236
same,glycan array binding signal (z-score),[25],1.41
same,glycan array binding signal (z-score),[26],0.597
same,glycan array binding signal (z-score),[27],0.629
same,glycan array binding signal (z-score),[28],0.712
same,glycan array binding signal (z-score),[29],0.005
same,glycan array binding signal (z-score),[30],-0.059
same,glycan array binding signal (z-score),[31],0
same,glycan array binding signal (z-score),[32],0.379
same,glycan array binding signal (z-score),[33],0.241
same,glycan array binding signal (z-score),[34],1.43
same,glycan array binding signal (z-score),[35],0.182
same,glycan array binding signal (z-score),[36],5.7
same,glycan array binding signal (z-score),[37],0.375
